Test results reported in the supplement of paper PMC8728848.
This is one part of the list.

Experiments:
Experiment in all cases: glycan array binding signal (z-score within array); higher = stronger binding
Conditions in all cases: glycan notation: IUPAC condensed, linker removed; mutation: R349A
[1] = target: Gal(b1-4)GlcNAc(b1-3)Gal(b1-4)GlcNAc(b1-3)Gal(b1-4)GlcNAc
How it was run: (§1)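 Glycan array data were curated from 3228 arrays in the Consortium for Functional Glycomics database and kept only where the protein sequence was available. Glycan names were converted to IUPAC-condensed notation, and columns mapping to the same glycan were averaged. The binding signal is a within-array Z-score, averaged across arrays of the same protein sequence at different concentrations or buffers and across linkers. Negative Z-scores can be read as non-binding.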

[2] = target: Gal(b1-4)GlcNAc(b1-3)Gal(b1-4)[Fuc(a1-3)]GlcNAc(b1-3)Gal(b1-4)[Fuc(a1-3)]GlcNAc
How it was run: as §1

[3] = target: Gal(b1-4)GlcNAc(b1-3)GalNAc
How it was run: as §1

[4] = target: Gal(b1-4)GlcNAc(b1-3)[Gal(b1-4)GlcNAc(b1-6)]Gal(b1-4)GlcNAc
How it was run: as §1

[5] = target: Gal(b1-4)GlcNAc(b1-3)[GlcNAc(b1-6)]Gal(b1-4)GlcNAc
How it was run: as §1

[6] = target: Gal(b1-4)GlcNAc(b1-6)Gal(b1-4)GlcNAc
How it was run: as §1

[7] = target: Gal(b1-4)GlcNAc(b1-6)Gal(b1-4)GlcNAc(b1-6)GalNAc
How it was run: as §1

[8] = target: Gal(b1-4)GlcNAc(b1-6)GalNAc
How it was run: as §1

[9] = target: Gal(b1-4)GlcNAc(b1-6)[Gal(b1-3)]GalNAc
How it was run: as §1

Gal3S(b1-3)GalNAc = target: Gal3S(b1-3)GalNAc
How it was run: as §1

Gal3S(b1-3)GlcNAc = target: Gal3S(b1-3)GlcNAc
How it was run: as §1

[10] = target: Gal3S(b1-3)[Fuc(a1-4)]GlcNAc
How it was run: as §1

Gal3S(b1-4)Glc = target: Gal3S(b1-4)Glc
How it was run: as §1

Gal3S(b1-4)Glc6S = target: Gal3S(b1-4)Glc6S
How it was run: as §1

Gal3S(b1-4)GlcNAc = target: Gal3S(b1-4)GlcNAc
How it was run: as §1

Gal3S(b1-4)GlcNAc6S = target: Gal3S(b1-4)GlcNAc6S
How it was run: as §1

[11] = target: Gal3S(b1-4)[Fuc(a1-3)]Glc
How it was run: as §1

Gal3S4S(b1-4)GlcNAc = target: Gal3S4S(b1-4)GlcNAc
How it was run: as §1

Gal3S6S(b1-4)GlcNAc = target: Gal3S6S(b1-4)GlcNAc
How it was run: as §1

Gal3S6S(b1-4)GlcNAc6S = target: Gal3S6S(b1-4)GlcNAc6S
How it was run: as §1

Gal4S(b1-4)GlcNAc = target: Gal4S(b1-4)GlcNAc
How it was run: as §1

Gal4S6S(b1-4)GlcNAc = target: Gal4S6S(b1-4)GlcNAc
How it was run: as §1

Gal6S(b1-4)Glc = target: Gal6S(b1-4)Glc
How it was run: as §1

Gal6S(b1-4)Glc6S = target: Gal6S(b1-4)Glc6S
How it was run: as §1

Gal6S(b1-4)GlcNAc = target: Gal6S(b1-4)GlcNAc
How it was run: as §1

Gal6S(b1-4)GlcNAc6S = target: Gal6S(b1-4)GlcNAc6S
How it was run: as §1

GalNAc(a1-3)Gal = target: GalNAc(a1-3)Gal
How it was run: as §1

GalNAc(a1-3)GalNAc = target: GalNAc(a1-3)GalNAc
How it was run: as §1

GalNAc(b1-3)Gal = target: GalNAc(b1-3)Gal
How it was run: as §1

[12] = target: GalNAc(b1-3)Gal(a1-4)Gal(b1-4)GlcNAc
How it was run: as §1

GalNAc(b1-3)GalNAc = target: GalNAc(b1-3)GalNAc
How it was run: as §1

GalNAc(b1-4)GlcNAc = target: GalNAc(b1-4)GlcNAc
How it was run: as §1

Glc(a1-4)Glc = target: Glc(a1-4)Glc
How it was run: as §1

Glc(a1-6)Glc(a1-6)Glc = target: Glc(a1-6)Glc(a1-6)Glc
How it was run: as §1

Glc(b1-4)Glc = target: Glc(b1-4)Glc
How it was run: as §1

Glc(b1-6)Glc = target: Glc(b1-6)Glc
How it was run: as §1

GlcA(b1-3)Gal = target: GlcA(b1-3)Gal
How it was run: as §1

B1: Surfactant Protein D (Human); Neck + Carbohydrate Recognition Domain (NCRD) (Homo sapiens) (protein)
chain: MLLFLLSALVLLTQPLGYLEAEMKTYSHRTMPSACTLVMCSSVESGLPGRDRDGREGPRGEKGDPGLPGAAGQAGMPGQAGPVGPKGDNGSVGEPGPKGDTGPSGPPGPPGVPGPAGREGALGKQGNIGPQGKPGPKGEAGPKGEVGAPGMQGSAGARGLAGPKGERGVPGERGVPGNTGAAGSAGAMGPQGSPGARGPPGLKGDKGIPGDKGAKGESGLPDVASLRQQVEALQGQVQHLQAAFSQYKKVELFPNGQSVGEKIFKTAQFVKPFTEAQLLCTQAGGQLASPRSAAENAALQQLVVAKNEAAFLSMTDSKTEGKFTYPTGESLVYSNWAPGEPNDDGGSEDCVEIFTNGKWNDRACGEKALVVCEF
[1]
  glycan array binding signal (z-score): 0.385
[2]
  glycan array binding signal (z-score): -0.676
[3]
  glycan array binding signal (z-score): -0.999
[4]
  glycan array binding signal (z-score): 1.12
[5]
  glycan array binding signal (z-score): -0.419
[6]
  glycan array binding signal (z-score): -0.245
[7]
  glycan array binding signal (z-score): 1.53
[8]
  glycan array binding signal (z-score): -0.383
[9]
  glycan array binding signal (z-score): -0.813
Gal3S(b1-3)GalNAc
  glycan array binding signal (z-score): 1.84
Gal3S(b1-3)GlcNAc
  glycan array binding signal (z-score): 1
[10]
  glycan array binding signal (z-score): 0.815
Gal3S(b1-4)Glc
  glycan array binding signal (z-score): 0.892
Gal3S(b1-4)Glc6S
  glycan array binding signal (z-score): 2.36
Gal3S(b1-4)GlcNAc
  glycan array binding signal (z-score): 0.78
Gal3S(b1-4)GlcNAc6S
  glycan array binding signal (z-score): 1.93
[11]
  glycan array binding signal (z-score): 2
Gal3S4S(b1-4)GlcNAc
  glycan array binding signal (z-score): 1.54
Gal3S6S(b1-4)GlcNAc
  glycan array binding signal (z-score): 2.25
Gal3S6S(b1-4)GlcNAc6S
  glycan array binding signal (z-score): 3.32
Gal4S(b1-4)GlcNAc
  glycan array binding signal (z-score): 1.91
Gal4S6S(b1-4)GlcNAc
  glycan array binding signal (z-score): 1.38
Gal6S(b1-4)Glc
  glycan array binding signal (z-score): 1.12
Gal6S(b1-4)Glc6S
  glycan array binding signal (z-score): 3.96
Gal6S(b1-4)GlcNAc
  glycan array binding signal (z-score): 0.94
Gal6S(b1-4)GlcNAc6S
  glycan array binding signal (z-score): 1.67
GalNAc(a1-3)Gal
  glycan array binding signal (z-score): -0.674
GalNAc(a1-3)GalNAc
  glycan array binding signal (z-score): -0.685
GalNAc(b1-3)Gal
  glycan array binding signal (z-score): -0.462
[12]
  glycan array binding signal (z-score): -0.885
GalNAc(b1-3)GalNAc
  glycan array binding signal (z-score): -0.721
GalNAc(b1-4)GlcNAc
  glycan array binding signal (z-score): -0.457
Glc(a1-4)Glc
  glycan array binding signal (z-score): -0.583
Glc(a1-6)Glc(a1-6)Glc
  glycan array binding signal (z-score): -0.774
Glc(b1-4)Glc
  glycan array binding signal (z-score): -0.825
Glc(b1-6)Glc
  glycan array binding signal (z-score): 0.27
GlcA(b1-3)Gal
  glycan array binding signal (z-score): -0.179
